This is an account of results in the RNAGym collection of RNA variant scans (doi:10.1101/gad.245936.114).

This sample is rich in variants without activity. Where only a bound is given, the exact number is not on record here.

B1: tRNA (parent)
chain: CUCUCGGUAGCCAAGUUGGUUUAAGGCGCAAGACUUUAAUUUAUCACUACGAAAUCUUGAGAUCGGGCGUUCGACUCGCCCCCGGGAGAUUUUUUCCUCGAGCAA

This data set covers variants of B1. Kind of data set: nonsense suppression (GFP-seq) (ratio to wild type); higher = more function; SUP4oc tRNA, yeast GFP reporter sort-seq. A digest of the protocol:
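Sorted GFP/RFP bins of yeast were each Illumina-sequenced with a phred ≥30 cutoff; the cells held a genome-integrated ochre-suppressor tRNA variant from a library with ~3% random mutations, a galactose-driven GFP ochre reporter, and RFP. Culture was in raffinose/galactose medium containing 80 mg/L adenine. Nonsense suppression, termed GFPSEQ, is the median GFP/RFP of the bins weighted by each variant's estimated cell share per bin, relative to the unmutated parent tRNA, for variants reaching ≥100 reads and ≥30 cells.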
Regarding C12U G78U G86A, the nonsense suppression was not above 0.026.
In the case of G59U G65C A89C, the nonsense suppression is not above 0.026.
As for C1A C68U, the nonsense suppression was not above 0.026.
Consider G7A G10C A23G C56A, for which the nonsense suppression is not above 0.026.
Regarding G7A A9G C12G A14G, the nonsense suppression is not above 0.026.
As for C3U G19U C81G G84U, the figure is not above 0.026.
As for C1G A31U G88A, the figure is not above 0.026.
Under A9C G19U C56U stands not above 0.026; under C1A C5U G6A G67A C79A, not above 0.026.
For A30G G65A G73U A74G A89C, the nonsense suppression is not above 0.026.
With A14C U22G A54G G73C C79A, the nonsense suppression was not above 0.026.
As for C5A A14U A60G C79G, the figure is not above 0.026; as for G7C U8A U22C G25U, not above 0.026; as for A24U G25U U55A, not above 0.026.
Under A33G C79G stands not above 0.026.
Under G19A U57C U58A U70C stands not above 0.026; under A33G U57G G69A, not above 0.026; under U17A U70G U71C, not above 0.026.
For A9U U55A, the nonsense suppression was not above 0.026.
Under G25C G67U C82A stands not above 0.026; under U17A C64U C79G, not above 0.026.
As for C27U G28U G32U C34U U70G G78C, the figure is not above 0.026; as for C5A A24C A31G G86A, not above 0.026.
As for U8A G67C U71G, the figure is not above 0.026; as for U70C G85U, not above 0.026; as for C27U C77G, not above 0.026.
As for A31G G32C G88U, the nonsense suppression is not above 0.026.
Under U55A A62G G66C A89C stands not above 0.026; under U20G G88U, not above 0.026.
As for G26U U58C G59U, the nonsense suppression is not above 0.026.
As for U22G G32C, the figure is not above 0.026; as for A13U G73C, not above 0.026.
As to C1U A87C, the nonsense suppression is not above 0.026.
As for G18U C27G A62U, the figure is not above 0.026; as for A14U C64G G69C, not above 0.026; as for A13U U22G G84U, not above 0.026.
Turning to C11G A24G A74U, the nonsense suppression was not above 0.026.
For G26C A31C G73U A74U, the nonsense suppression was not above 0.026.
Under A30U A89U stands 0.0434.
As for C11A A23G G25C U55G U76G, the figure is not above 0.026; as for G7C A14G U58C G67C, not above 0.026.
For the variant U21C G69A G84U, the nonsense suppression is not above 0.026.
Under A33C A60U U71C stands not above 0.026; under U2A G25A A33G G59A G88C, not above 0.026; under U17G C83A, not above 0.026.
As for G10A G28A, the figure is not above 0.026.
Under U55G U57C A62C stands not above 0.026.
U21G U63G U76A: the nonsense suppression is not above 0.026.
Take C34A G67C: the nonsense suppression is not above 0.026.
As for A24G A60G G84C, the figure is not above 0.026; as for A9G U16A G19U A89U, not above 0.026.
As for U4G G15A C72U, the figure is not above 0.026.
Under U71A stands not above 0.026; under C11G G32U G61C, not above 0.026; under U2A C11G, not above 0.026.
Consider A33U A89U, for which the nonsense suppression was not above 0.026.
As for U58A G66C G69C C72G, the figure is not above 0.026; as for C5U G7A U20G, not above 0.026.
Under C27U G28C G66U stands not above 0.026; under G15A A33G C34G C68U G73C, not above 0.026.
As for G18U U55G, the figure is not above 0.026.
Turning to G59A G85A, the nonsense suppression is not above 0.026.
Under U8C A14G C81G stands not above 0.026; under G28A A74C C80G C81G C82A, not above 0.026.
Under A9G C11U stands 0.0313; under U58G G69U C75A C83A, not above 0.026.
Turning to A9G C11G A62C A89U, the nonsense suppression was not above 0.026.
Under C1G C5U G7U G18U stands not above 0.026; under C3U U8A U76A, not above 0.026.
As for U17G G19C U21A U57A G78U, the figure is not above 0.026; as for A13C A14U U16G, not above 0.026.
For C1U C12G A24C, the nonsense suppression was not above 0.026.
As for G26A A60U, the figure is not above 0.026; as for G67C C72A, not above 0.026.
G32A G78C: the nonsense suppression is not above 0.026.
As to G10C C12A U55G, the nonsense suppression was not above 0.026.
Take C34G U63A G65U G84C: the nonsense suppression was not above 0.026.
Under U4A U22G stands 0.155; under C3A U4C A62G, not above 0.026; under A9U C75U, 0.656.
Regarding G18C C29A, the nonsense suppression is not above 0.026.
Regarding C5U A30U C34G A54G U63A G88C, the nonsense suppression was not above 0.026.
As for C5G A13G G78U, the figure is not above 0.026; as for U17A G26U A89U, not above 0.026; as for A14C G25U U63C, not above 0.026.
Under A23U C72A G73A U76G stands not above 0.026; under C12A G25C C68G, not above 0.026; under G84U G88A, not above 0.026.
As for U8A C27U A30C, the figure is not above 0.026; as for G65C U70A C77U, not above 0.026; as for C68A G84A, not above 0.026.
Regarding C3G G65C G78A, the nonsense suppression was not above 0.026.
For U2G U55A G85U, the nonsense suppression was not above 0.026.
Under U2A U8C A9G U21A stands not above 0.026; under C5U G18U C56G G66A, not above 0.026.
As for C3U C27G U35A U58A G65A A74G, the figure is not above 0.026.
Under U21G A60C stands 0.0285.
In the case of A9U G61U G69U, the nonsense suppression was not above 0.026.
As for G7U A9C U16C U57C, the figure is not above 0.026; as for C64A G66C, not above 0.026.
Under G6C U71A stands not above 0.026; under G26C A30U, not above 0.026; under C5A A31G G73A, not above 0.026.
As for C11A A13C U35A, the nonsense suppression is not above 0.026.
Under G28C A31G C34A C68A stands not above 0.026.
As for A13C G15U C64U, the figure is not above 0.026; as for C1G A9C G67A U71A, not above 0.026.
As for A62G G73C U76C, the figure is not above 0.026.
Consider C12U G25U G26A G28C G86A A89G, for which the nonsense suppression was not above 0.026.
Consider G7C A31C, for which the nonsense suppression is not above 0.026.
As for U58A G61A, the figure is 0.0532; as for C12U U20G, 0.455.
As for C3U G6C U70A C72G C79U, the figure is not above 0.026.
Under G6U U57G A89U stands not above 0.026.
For the variant C34G A60C, the nonsense suppression was not above 0.026.
As for G7A A54C, the figure is not above 0.026.
Under A31U U55G stands not above 0.026; under G10A C64G, not above 0.026.
On to A13G C29U G88C, for which the nonsense suppression is not above 0.026.
Under G28A A31C G88C stands not above 0.026; under C34U G73U C79G, not above 0.026; under G25C C27A A60G G67U, not above 0.026.
As for U21A G65A G67C, the figure is not above 0.026.
Under C3U C34A U58A G67U G86A stands not above 0.026; under U16C A33U G65A C68U C83G G88U, not above 0.026; under U2A U17A U63A U76C, not above 0.026.
For the variant A13G G18A G19U U71G A87U, the nonsense suppression was not above 0.026.
Under U17G C68G A89C stands not above 0.026.
Under U2A C11U G85A stands not above 0.026; under C1U G26C, not above 0.026; under G73C A87G, not above 0.026.
As for C12A G26C U76C, the figure is not above 0.026; as for U2A G7A A13G U22G C29U U63A U71C, not above 0.026; as for U58C G69A, not above 0.026.
For U17G C56U, the nonsense suppression is not above 0.026.
Under G6A U8C C29U A62C stands not above 0.026; under G18C U71A, not above 0.026; under U35G A89U, not above 0.026.
Regarding A74C G78A, the nonsense suppression was not above 0.026.
As for C1G A23G U63A U70C G73A, the figure is not above 0.026; as for C5A A9U A24C U55G C56A, not above 0.026; as for A31G C34G A54C, not above 0.026.
For A24U C82U, the nonsense suppression turned out to be 0.0571.
As for G6C C34G G59C U63C U70C, the figure is not above 0.026; as for U63C U71C A74G, not above 0.026.
For U58C C68A U70C, the nonsense suppression was not above 0.026.
On to C1A U4A A13U C29U A87U, for which the nonsense suppression is not above 0.026.
As for C11A G28A C56G U57C A60U G65U, the figure is not above 0.026; as for C27A C29A G88A, not above 0.026.
As for A14G G61U, the figure is not above 0.026; as for G6A U71G, not above 0.026.
As for C34U C68G U70A A89G, the figure is not above 0.026; as for C12U C72G, not above 0.026; as for G28C G61A U63C, 0.041.
As to A14U U20C A31U G67U, the nonsense suppression is not above 0.026.
On to U16C A23G G28U, for which the nonsense suppression is not above 0.026.
As to A14U A60U G66C C80U, the nonsense suppression was not above 0.026.
Under A14U G28C G65A U76G stands not above 0.026; under C34A U58G, not above 0.026.
Under A9U A60G stands not above 0.026; under G61A G73C A74C G88A, not above 0.026.
As for U58G G86A, the figure is not above 0.026.
Regarding A13U G59C, the nonsense suppression was not above 0.026.
Under C1G A9G C11A U21A A30C stands not above 0.026; under G32A G59C C75A, not above 0.026.
Under A14C U20G stands not above 0.026; under C3G C29A G73U C75U, not above 0.026.
